The whole screen tested about 52,000 compounds, of which about 1,700 (3.3%) were called active. Cut-off read from the data, not from the text of the source: active = survival mostly below about 52% (no sharp cut-off); inactive = mostly above about 56%. Some of the results follow.
These molecules were tested on Wild type (assay: S. aureus survival, RN4220 and DeltatarO strains – OD600, teichoic acid synthesis inhibitors, primary screen (AID 463173)). Conditions: S. aureus RN4220 wild type/DeltatarO growth, OD600, 18 h, active compounds read low, screened at 18.75 µg/mL (by protocol).

Row | Compound | survival
1 | CCOc1ccc(-n2nc3cc(C)c(NC(=O)CC)cc3n2)cc1 | inactive: 72%
2 | COc1ccc(C2NC(=O)c3c(sc4c3CCN(C)C4)N2)cc1O (stereo not drawn) | inactive: 68%
3 | CCCNc1nc(NCc2ccccc2OC)c2cnn(C)c2n1 | inactive: 74%
4 | CCN(CCCNC(=O)c1cc2c(=O)[nH]c3ccc(C)cc3c2s1)c1ccc(C)cc1 | inactive: 64%
5 | CCCCN(CCCC)CCNC(=O)CN1C(=O)CSc2ccc(S(=O)(=O)N3CCCCC3)cc21 | inactive: 110%
6 | Cc1cccc(CN2C(=O)CC(c3ccc(Cl)cc3)c3c(C)nn(-c4nc(C)cc(C)n4)c32)c1 (stereo not drawn) | inactive: 76%
7 | COc1ccccc1N(CC(=O)Nc1ccccc1F)S(C)(=O)=O | inactive: 74%
8 | Cc1cccc(N2CCN(C(=O)C3CCN(S(=O)(=O)c4cn(C)cn4)CC3)CC2)c1C | inactive: 79%
9 | COc1ccccc1NC(=O)CN1C(=O)c2cccc3cccc1c23 | inactive: 58%
10 | Cc1ccc(Cl)cc1N1CCN(S(=O)(=O)c2ccc3[nH]c4c(c3c2)CCCC4)CC1 | inactive: 81%
11 | Cc1ccc(NC(=O)N2CCN(c3nnc(C)c4c(C)n(-c5ccccc5)nc34)CC2)cc1Cl | inactive: 71%
12 | CCCN1C(=O)c2ccccc2CC1(C)C(=O)NC1CCCCC1 (stereo not drawn) | inactive: 85%
13 | Cc1ccc(Cl)cc1Nc1nn2c(=O)c3ccc(C(=O)NCc4cccs4)cc3nc2s1 | inactive: 131%
14 | COc1ccccc1NC(=O)C1CCN(S(=O)(=O)c2ccc3c(c2)oc(=O)n3C)CC1 | inactive: 86%
15 | CCOCCCn1c(SCC(=O)Nc2cccc(OC)c2)nc2ccccc2c1=O | inactive: 89%
16 | COc1cccc(C(=O)NCC(=O)NN)c1 | inactive: 106%
17 | CCC(CO)Nc1ncnc2c1cnn2-c1ccc(C)cc1 (stereo not drawn) | active: -6%
18 | CCOc1ccccc1CNC(=O)c1cnc2sc(N3CCCC3)nn2c1=O | inactive: 138%
19 | O=C(NCc1ccc2c(c1)OCO2)c1ccc2c(c1)N(Cc1ccc(F)cc1)C(=O)c1ccccc1S2=O (stereo not drawn) | inactive: 90%
20 | CCOCCc1nn2c(=O)cc(COC(=O)c3cccs3)nc2s1 | inactive: 159%
21 | Cc1ccc2nc(N(Cc3cccnc3)C(=O)c3ccc4c(c3)OCCO4)sc2c1 | inactive: 67%
22 | CCN(c1ccc(Cl)cc1)S(=O)(=O)c1nnc(NC(=O)C2CCCCC2)s1 | inactive: 89%

Row | Compound | survival
23 | Cc1cc(C)cc(-n2c(SCC(=O)NCC3CCCO3)nc3c([nH]c4ccccc43)c2=O)c1 (stereo not drawn) | inactive: 70%
24 | CCOc1ccc(-c2cc(NC(=O)c3ccc(C)cc3)c(C(=O)OC)s2)cc1 | inactive: 72%
25 | COc1ccc2c(c1)-c1nc(NC(=O)c3ccc(C)cc3)sc1CC2 | active: 14%
26 | NC(=O)c1nsc(C(=O)N(CCc2ccccc2)C(C(=O)NC2CCCC2)c2ccco2)c1N (stereo not drawn) | inactive: 105%
27 | CCCC(=O)C1=C(c2ccc(C)c(C)c2)N(C(=O)CCC)n2c(CC)nnc2S1 | inactive: 72%
28 | COc1ccc(-c2noc(-c3ccc(NCCc4ccccc4)c([N+](=O)[O-])c3)n2)cc1OC | inactive: 86%
29 | CC1CCN(C(=O)c2cc(-c3cccc(Cl)c3)on2)CC1 | active: -15%
30 | CCn1ccc2cc(S(=O)(=O)N3CCCN(C(=O)Nc4cc(Cl)ccc4C)CC3)ccc21 | inactive: 71%
31 | CC(C)c1ccc(NS(=O)(=O)c2ccc3[nH]cc(C(=O)N4CCCC4)c(=O)c3c2)cc1 | inactive: 78%
32 | O=C(Cn1ncc2c3ccccc3n(Cc3ccccc3)c2c1=O)Nc1ccccc1C(F)(F)F | inactive: 84%
33 | COc1ccc(OC)c(CNC(=O)CCCn2nc(C)c3c(C)n(-c4ccc(C)cc4)nc3c2=O)c1 | inactive: 54%
34 | COc1cccc(CNC(=O)Cc2c(C)c3c(cc(C)c4c(C)coc43)oc2=O)c1 | inactive: 83%
35 | CCOc1ccc(NC(=O)Nc2ccc3snnc3c2)cc1 | inactive: 116%
36 | CCCC(=O)Nc1ccccc1NC(=O)CCC | inactive: 86%
37 | Nc1ccccc1OC(=O)C[n+]1ccccc1 | inactive: 93%
38 | CCc1ccc(CNC(=O)c2ccc3nc(C(C)C)oc3c2)cc1 | inactive: 85%
39 | Cn1ccc2c(OCC(=O)NCc3ccccc3Cl)cccc2c1=O | inactive: 85%
40 | CC(=O)N1CCC2(CC1)OC(=O)C(C)=C2C(=O)NCc1ccc(Cl)cc1 | inactive: 49%
41 | Cc1nn(-c2nc(-c3ccc(F)cc3)cc(C(F)(F)F)n2)c(C)c1Cl | active: -2%
42 | O=C(Nc1ccc2oc(-c3cccnc3)nc2c1)c1ccc(-c2ccccc2)o1 | inactive: 72%
43 | COc1ccc(OC(C)c2nc3ccccc3[nH]2)cc1 (stereo not drawn) | inactive: 79%
44 | CCc1ccc(NC(=O)C(=O)NCC(c2cccnc2)N2CCN(C)CC2)cc1 (stereo not drawn) | inactive: 111%

Row | Compound | survival
45 | CCOc1ccc(NC(=O)Cn2cc(C(=O)c3ccc(C)c(C)c3)c(=O)c3cc(OC)c(OC)cc32)cc1 | inactive: 88%
46 | COc1cc(NC(=O)C(CC(C)C)NS(=O)(=O)c2ccc3c(c2)oc(=O)n3C)c(C(=O)O)cc1OC (stereo not drawn) | inactive: 124%
47 | CCOC(=O)c1ccc(NC(=O)c2csc3c2CCCCC3)cc1 | inactive: 33%
48 | CCOc1ccc(NC(=O)C(=O)NCCc2csc3nc(-c4ccccc4F)nn23)cc1 | active: -3%
49 | Cc1ccc(CN2CCN(C3CCN(S(=O)(=O)c4ccc(C)cc4)CC3)C(=O)C2=O)cc1 | inactive: 77%
50 | COC(=O)c1ccc(Cl)cc1NC(=O)N(C)CCc1c(C)nn(C)c1C | inactive: 111%
51 | O=c1cc(-c2ccc(F)cc2)nc(SCc2nc(-c3ccccc3Cl)no2)[nH]1 | inactive: 121%
52 | CCC1CCCCN1C(=O)CSc1nc2c([nH]c3ccccc32)c(=O)n1-c1cccc(OC)c1 (stereo not drawn) | inactive: 53%
53 | Cc1ccc(-n2ccnc(NCCc3ccc(S(N)(=O)=O)cc3)c2=O)cc1C | inactive: 55%
54 | Cc1oc(-c2cccc(Cl)c2)nc1CSc1nc2ncccc2[nH]1 | inactive: 78%
55 | COc1cc(C(=O)Nc2ccc(NC(=O)c3ccc(Br)cc3)cc2)cc(OC)c1OC | inactive: 82%
56 | COc1ccc(CCn2c3c(c(=O)[nH]c2=O)C(NC(=O)c2ccccc2OC)(C(F)(F)F)C(=O)N3)cc1OC (stereo not drawn) | inactive: 84%
57 | O=C(O)c1ccc2nc(-c3cc4cc(F)ccc4oc3=O)[nH]c2c1 | inactive: 121%
58 | Cc1cccc(N2CCN(C(=O)c3cc4c(=O)n(C)c5ccccc5c4s3)CC2)c1C | inactive: 59%
59 | O=C(COc1ccccc1Cl)Nc1ccc(Cl)c(-c2nc3ccccc3o2)c1 | inactive: 80%
60 | COCCN(Cc1cc2cc3c(cc2nc1Cl)OCO3)C(=O)Nc1ccccc1OC | inactive: 100%
61 | CCOc1ccc(NC(=O)c2cnn(-c3ccc(C)c(C)c3)c2C2CCN(C(=O)OC(C)(C)C)CC2)cc1 | inactive: 89%
62 | COc1ccccc1N1CCN(C(=O)c2cn(C)c3ccc(S(=O)(=O)N(C)C4CCCCC4)cc3c2=O)CC1 | inactive: 87%
63 | CCc1ccc(OCC(=O)N(Cc2ccco2)Cc2ccccc2Cl)cc1 | inactive: 83%
64 | CCOc1ccc(Nc2nc3c(S(=O)(=O)c4cccc(Cl)c4)nnn3c3ccsc23)cc1 | inactive: 98%
65 | CC1=C(C(=O)Nc2ccccc2)C(c2ccc(C(=O)O)cc2)n2ncnc2N1 (stereo not drawn) | inactive: 47%
66 | Cc1ccc(NC(=O)CCCn2c(=O)c3cccn3c3ccccc32)c(C)c1 | inactive: 68%

Row | Compound | survival
67 | CCOC(=O)c1cnc2c(ccc3ccccc32)c1Nc1cccc(C(F)(F)F)c1 | inactive: 37%
68 | CCc1noc(-c2ccc(NCc3ccccc3)c([N+](=O)[O-])c2)n1 | inactive: 78%
69 | Cc1ccc(C(=O)NCC(c2ccc3c(c2)OCO3)N2CCN(C)CC2)cc1C (stereo not drawn) | inactive: 78%
70 | COc1ccc(F)cc1S(=O)(=O)NCC(c1ccco1)S(=O)(=O)c1ccc(F)cc1 (stereo not drawn) | inactive: 45%
71 | CCCn1c(=C(C#N)C#N)s/c(=C2\C=Cc3ccccc3N2CC)c1=O | inactive: 105%
72 | CCOc1cc(C(=O)NCCc2csc3nc(-c4ccccc4F)nn23)cc(OCC)c1OCC | inactive: 87%
73 | COc1ccc(Cn2c(C(=O)O)c(CNCCc3ccco3)c3ccc(C)cc32)cc1 | inactive: 87%
74 | N=c1c(C(=O)NCC2CCCO2)cc2c(=O)n3ccccc3nc2n1CCCO (stereo not drawn) | inactive: 71%
75 | Cc1ccccc1OCC(=O)Nc1ccccc1C(=O)OCc1cc(=O)n2ccsc2n1 | inactive: 133%
76 | Cc1cc(C(F)F)n2nc(C(=O)Nc3cccc(Cl)c3C)nc2n1 | inactive: 79%
77 | Cc1nn(CCCC(=O)NCCc2ccc(Cl)cc2)c(=O)c2c1sc1ccccc12 | inactive: 80%
78 | O=C(Nc1ccc(-n2nncc2-c2ccccc2)cc1)c1cccc(F)c1 | inactive: 152%
79 | Cn1ncc2c(NCc3ccccc3Cl)nc(NCCO)nc21 | inactive: 80%
80 | COc1ccc2c(c1)c1c(c(=O)n(-c3ccccc3)c(=O)n1CC(=O)NCCC1=CCCCC1)n2C | inactive: 66%
81 | CCOc1ccc(CNC(=O)C2CCN(S(=O)(=O)c3cn(C)cn3)CC2)cc1 | inactive: 80%
82 | O=C(CN1C(=O)CCn2nc(-c3ccccc3)cc21)NCc1ccc(F)cc1 | inactive: 73%
83 | N#CC1=C(N)N2C(=C(C#N)C13CCCC3)Nc1ccccc12 | inactive: 113%
84 | Cn1nc(C(=O)NCc2cccc(Cl)c2)c2c1-c1ccccc1S(=O)(=O)C2 | inactive: 80%
85 | CCC(OC(=O)CN1C(=O)c2ccccc2C1=O)C(=O)NC1CCCC1 (stereo not drawn) | inactive: 98%
86 | CCOC(=O)Cn1c(=O)n(C2CCCCC2)c2nc(-c3ccc(CC)cc3)nc(C(N)=O)c21 | inactive: 82%
87 | Cc1cc(C)cc(NC(=O)Cn2c(=O)n(-c3cc(C)cc(C)c3)c(=O)c3oc4ccccc4c32)c1 | inactive: 83%
88 | COc1cc(CN2CCc3nc(N4CCN(c5ncccn5)CC4)ncc3C2)cc(OC)c1OC | inactive: 73%

From PubChem BioAssay AID463173 (ICCB-Longwood Screening Facility, Harvard Medical School, 2010)
